Measured values published in PubChem BioAssay AID504832 (National Center for Advancing Translational Sciences (NCATS), 2011).
Out of some 310,000 compounds screened, about 18,000 (5.8%) were called active. The inconclusive results got no clear call from the source; some entries with a clear call stand among them for comparison. Calls follow the shape of the dose curve; as a rule, active = well fitted inhibition curve with a large enough effect; inconclusive = small, poorly fitted or top-dose-only effect, or another doubt; inactive = no such curve, though single readings can be large or run the other way. No potency is given beside an inconclusive call; the fits are too rough.

Assay: Primary qHTS for delayed death inhibitors of the malarial parasite plastid, 48 hour incubation
Conditions: P. falciparum luciferase growth in erythrocytes; series mostly up to 28.7 µM
Procedure, shortened: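 Here the parasites carry a stable luciferase gene and grow inside erythrocytes in Albumax-based RPMI medium with compound for one erythrocytic cycle. Activity is scored as loss of luminescent signal.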
Potency is read from the fitted curve at half-maximal effect; tags tell the direction and shape of the fitted curve.

Row | SMILES | Potency
1 | CC(=O)Nc1sc(N/N=C\c2cccc(Cl)c2)nc1-c1cccs1 | inconclusive [inhibitor, single point]
2 | COc1ccc(-c2nc(-c3ccccn3)ncc2S(C)(=O)=O)cc1 | inactive
3 | COc1ccc(CCNc2nc3c(c(=O)n(C)c(=O)n3C)n2C)cc1OC | inactive
4 | Cc1cccc(N(Cc2cc3ccc(C)cc3[nH]c2=O)C(=O)c2ccco2)c1 | inconclusive [inhibitor, single point]
5 | COc1ccc(C(C)=O)cc1Cn1cnc2c(cnn2C)c1=O | inactive
6 | CSCC[C@H](NC(=O)c1nn(C)c(=O)c2ccccc12)c1nc2ccccc2[nH]1 | inconclusive [inhibitor, single point]
7 | COc1ccccc1CNC(=O)COC(=O)c1ccc2c(=O)n3c(nc2c1)CCCCC3 | inactive
8 | CCOC(=O)Nc1ccc2c(CN3CCN(S(=O)(=O)c4ccc(C(C)C)cc4)CC3)cc(=O)oc2c1 | inconclusive [inhibitor, single point]
9 | CCCNC(=S)N(Cc1cc2cc(C)ccc2n2nnnc12)CC(C)(C)CN(C)C | inconclusive [inhibitor, partial curve]
10 | COc1cccc(CNC(=O)C2CCN(c3nn4c(=O)cc(C)nc4s3)CC2)c1 | inconclusive [inhibitor, single point]
11 | CCN(C(=O)C1CCCCC1)c1nnc(-c2cccnc2)s1 | inconclusive [inhibitor, single point]
12 | CN=C(Nc1ccccc1)SC1CC(=O)N(c2ccc(C(=O)OC)cc2)C1=O (stereo not given) | inconclusive [inhibitor, partial curve]
13 | CCN(c1cccc(C)c1)S(=O)(=O)c1ccc2c(c1)NC(=O)CCS2 | inconclusive [inhibitor, partial curve, poor fit]
14 | Cc1ccc(-c2cccc(CN3CCN(C4CCN(C(C)C)CC4)C(CCO)C3)c2)o1 (stereo not given) | active: 10.4 µM
15 | COc1ccc(-n2nc(C(=O)NCC(=O)N3CCN(c4ccc(F)cc4)CC3)c3ccccc3c2=O)c(OC)c1 | inconclusive [inhibitor, partial curve]
16 | CSCCC(NC(=O)CCC(=O)OCC(=O)[C@@]1(O)CCC2[C@@H]3CCC4=CC(=O)C=C[C@]4(C)C3[C@@H](O)C[C@@]21C)C(=O)O (stereo not given in full) | active: 5.22 µM
17 | COc1ccc(-c2nn(-c3ccccc3)cc2CO)cc1OC | active: 13.1 µM
18 | CCc1ccc(-c2nc(CSCC(=O)NC3CC3)c(C)o2)cc1 | inconclusive [inhibitor, single point]
19 | Cc1c(C)n(C)c2ccc(C(=O)NCc3cccs3)cc12 | inconclusive [inhibitor, partial curve, poor fit]
20 | O=C(NCCCN1CCOCC1)c1ccc2c(=O)n(-c3ccc(F)c(Cl)c3)c(=S)[nH]c2c1 | inconclusive [inhibitor, partial curve, poor fit]
21 | Cc1c(O)nc2sc3ccccc3n2c1=O | inactive
22 | CCCCn1nc2cc(C(=O)NCc3ccc4c(c3)OCO4)ccc2c1OCC | inconclusive [inhibitor, partial curve]

Row | SMILES | Potency
23 | O=C(Nc1cccc(F)c1)N1CCC(n2c(=O)[nH]c3ccccc32)CC1 | inconclusive [inhibitor, partial curve]
24 | CCOC(=O)CNC(=O)CSc1nnc(Cn2c(=O)sc3ccccc32)n1C | inactive
25 | CC1CC(C)CN(c2nc(N(C)c3ccccc3)nc(N)c2[N+](=O)[O-])C1 (stereo not given) | inconclusive [inhibitor, partial curve, poor fit]
26 | Cc1ccc(CN2C(=O)C3CCCN3c3ccc(S(=O)(=O)N4CCOCC4)cc32)cc1 (stereo not given) | active: 4.65 µM
27 | CCS(=O)(=O)c1ccc(Sc2nncn2C)c([N+](=O)[O-])c1 | inconclusive [inhibitor, single point]
28 | CCOc1ccc(-c2nnc(N3CCOCC3)c3ccccc23)cc1 | inconclusive [inhibitor, single point]
29 | O=C(NC1CCCCC1)c1cc(S(=O)(=O)N2CCCCC2)ccc1N1CCOCC1 | inconclusive [inhibitor, single point]
30 | Cc1ccc(N/N=C(\C#N)C(=O)c2ccsc2)cc1 | inconclusive [inhibitor, single point]
31 | Cc1cc(NC(=O)CSCC(=O)Nc2ccc(Cl)c(C(F)(F)F)c2)no1 | inconclusive [inhibitor, single point]
32 | CCN1C(=O)/C(=C\c2ccc(-c3cccc(C(=O)OC)c3)o2)SC1=Nc1ccc(C(=O)O)cc1 | inconclusive [inhibitor, partial curve, poor fit]
33 | COc1ccc(NC(=O)C(=O)NCCC2CCCCN2S(=O)(=O)c2ccc(F)cc2)cc1 (stereo not given) | inconclusive [inhibitor, partial curve, poor fit]
34 | COc1cc(/C=N/NC(=O)c2ccc(N)cc2)ccc1OC(=O)c1cccc(C)c1 | inconclusive [inhibitor, single point]
35 | COc1cc2c(cc1OC)CN(c1ccc3ccccc3n1)CC2 | active: 11.7 µM
36 | CCOC(=O)c1ccc(NC(=O)CSc2nc(=O)n(CCN3CCOCC3)c3c2CCC3)cc1 | inconclusive [inhibitor, single point]
37 | Cc1oc2c(C)c3oc(=O)c(CCC(=O)N4CCC(C(=O)NCCC(=O)O)(c5ccccc5)CC4)c(C)c3cc2c1C | inconclusive [inhibitor, single point]
38 | Cc1ccc(-c2ccnc(-c3ccc(O)cc3)n2)cc1 | inactive
39 | COc1ccc(S(=O)(=O)N2CCCCCC2)cc1C(=O)NCCOc1ccc(C)cc1 | inconclusive [inhibitor, single point]
40 | COC(=O)CSc1nc(N2CCOCC2)c2c(c1C#N)CC(C)(C)OC2 | inactive
41 | O=C(c1cc(-c2ccccn2)nc2c(Cl)cccc12)N1CCN(S(=O)(=O)c2ccccc2)CC1 | active: 10.4 µM
42 | CNC(=O)c1cc(S(=O)(=O)Nc2ccc3c(c2)OCO3)ccc1C | inactive
43 | N#CC1=C(N)Oc2cc(Nc3ccccc3)ccc2C1c1ccncc1 (stereo not given) | inconclusive [inhibitor, partial curve]
44 | CC(=O)Nc1ccc(S(=O)(=O)NCCC(=O)OCc2ccc([N+](=O)[O-])cc2)cc1 | inconclusive [inhibitor, single point]

Row | SMILES | Potency
45 | CCn1ncc(C2=NOC(C(=O)Nc3cnn(C45CC6CC(CC(C6)C4)C5)c3)C2)c1C (stereo not given) | active: 5.86 µM
46 | CCc1ccccc1NS(=O)(=O)c1c(C(=O)N2CCCCCC2)c(C)n(C)c1C | inconclusive [inhibitor, full curve, poor fit]
47 | O=C(Cn1c(=O)n(-c2ccc(F)cc2)c(=O)c2sccc21)NC1CCCCC1 | inactive
48 | CCOC(=O)/C(C#N)=C/c1c(OCC)n(CC)c2ccccc12 | inconclusive [inhibitor, single point]
49 | COc1ccccc1/C=C1/C(=O)N(c2ccc([N+](=O)[O-])cc2)N=C1C | inconclusive [inhibitor, single point]
50 | CN1CCN(C(=O)/C(=C/c2cn(S(=O)(=O)N(C)C)c3ccccc23)NC(=O)c2ccccc2F)CC1 | inconclusive [inhibitor, partial curve]
51 | COc1ccc(NC(=O)Nc2ccccc2)cc1S(=O)(=O)N1CCCCC1 | inconclusive [inhibitor, partial curve, poor fit]
52 | O=C(c1n[nH]c2ccccc12)N1CCN(c2ccc(F)cc2)CC1 | inconclusive [inhibitor, single point]
53 | CCCCCCC(=O)N(O)C1CC(=O)N(c2ccc(Br)cc2)C1=O (stereo not given) | active: 13.1 µM
54 | COC(=O)c1ccc(CSc2nnc(-c3ccncc3)n2Cc2ccccc2)o1 | inactive
55 | Cc1cccc(N2CCN(C(=O)CCC(=O)N3Cc4ccccc4Oc4ncccc43)CC2)c1C | inconclusive [inhibitor, single point]
56 | Cc1ccc(S(=O)(=O)N2CC=C(C(=O)NC3CC3)CC2)cc1 | inconclusive [inhibitor, single point]
57 | COc1cc(NC(=S)Nc2cccc(Cl)c2Cl)c(OC)cc1Cl | inconclusive [inhibitor, full curve]
58 | COc1ccc(C(=O)N2CCc3c([nH]c4ccccc34)C2C(F)(F)F)cc1 (stereo not given) | inconclusive [inhibitor, full curve]
59 | COc1cc(Br)cc(CN2CCN(c3ncccn3)CC2)c1O | inconclusive [inhibitor, partial curve]
60 | CC[C@H]1CN2CCc3cc(OC)c(OC)cc3[C@H]2C[C@@H]1C[C@@H]1NCCc2cc(OC)c(OC)cc21 | active: 0.0675 µM
61 | COCC(C)n1c(C)cc(C(=O)COC(=O)c2c(C)nn(-c3ccccc3)c2C)c1C (stereo not given) | inconclusive [inhibitor, partial curve, poor fit]
62 | CC(C)Cc1cc(C(=O)Nc2sc3c(c2C#N)CCCC3)no1 | inactive
63 | O=C(O)c1ccc(N/N=C/c2ccc(-c3ccc(Br)cc3)o2)cc1 | inactive
64 | O=C(CNC(=O)c1ccc2c(c1)S(=O)(=O)N=C1CCCCCN12)Nc1ccc(F)c(F)c1 | active: 10.4 µM
65 | COCCn1nnnc1C(c1cccs1)N1CCN(c2nc3ccccc3s2)CC1 (stereo not given) | inconclusive [inhibitor, single point]
